Measured values taken from the supplement of paper PMC12217912.
This is one part of the list. The full chains were built here from the parent and the listed change. Values near 0.05 are background.

B1: TEV protease; numbered along this chain (parent)
chain: MGESLFKGPRDYNPISSSICHLTNESDGHTTSLYGIGFGPFIITNKHLFRRNNGTLVVQSLHGVFKVKDTTTLQQHLVDGRDMIIIRMPKDFPPFPQKLKFREPQREERICLVTTNFQTKSMSSMVSDTSCTFPSGDGIFWKHWIQTKDGQCGSPLVSTRDGFIVGIHSASNFTNTNNYFTSVPKNFMELLTNQEAQQWVSGWRLNADSVLWGGHKVFMVKPEEPFQPVKEATQL

Variants of: B1
Assay: raw area under fraction-flipped curve 0-4 h after induction (AUC4h, not background-subtracted), DNA-recorder readout of cleavage of the substrate (dimensionless); higher = more cleavage of the substrate by the protease variant
Conditions: temperature: 34 °C; time window: 0-4 h after rhamnose induction
Experimental: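 In vivo DNA recorder in E. coli TOP10(DE3) ΔrhaA at 34 °C. Each TEVp single-site mutant (parent TEVp 0) is paired with a single-site variant of the 7-mer TEVs (canonical ENLYFQ|S). The substrate sits between flexible linkers in a Bxb1-sfGFP-TEVs-SsrA fusion, so cleavage stabilises Bxb1 and speeds flipping of a recombination array, read by NGS. The value is the raw area under the fraction-flipped curve over 0-4 h after rhamnose induction (AUC4h), with ≥20 reads per time point. It is not background-subtracted; inactive controls average about 0.047.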
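Note: Bxb1 expression induced with 0.2% (w/v) L-rhamnose at OD600 near 0.5, cultures sampled hourly, flipped fraction per protease–substrate barcode pair counted by paired-end Illumina sequencing.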

Row | Variant | area with substrate ENLAFQS | area with substrate ENLCFQS | area with substrate ENLDFQS | area with substrate ENLFFQS | area with substrate ENLHFQS | area with substrate ENLKFQS | area with substrate ENLMFQS | area with substrate ENLNFQS | area with substrate ENLPFQS | area with substrate ENLQFQS | area with substrate ENLSFQS | area with substrate ENLWFQS | area with substrate ENLEFQS | area with substrate ENLGFQS | area with substrate ENLRFQS | area with substrate ENLIFQS | area with substrate ENLLFQS | area with substrate ENLVFQS | area with substrate ENLTFQS
1 | L211Y | 0.0684 | 0.0758 | 0.0624 | 0.0827 | 0.0797 | 0.0769 | 0.068 | 0.148 | 0.061 | 0.0727 | 0.0763 | 0.0896 | – | – | – | – | – | – | –
2 | Y34R | – | 0.0589 | 0.0797 | 0.094 | – | 0.0735 | – | – | – | 0.0671 | 0.0532 | 0.074 | 0.0729 | 0.0649 | 0.0631 | – | – | – | –
3 | V217K | 0.055 | – | 0.0684 | – | 0.0421 | 0.0529 | – | 0.0712 | – | – | 0.082 | 0.0573 | 0.07 | – | 0.0405 | 0.0925 | 0.074 | 0.0579 | –
4 | V217Y | 0.063 | – | 0.0702 | 0.0678 | – | 0.0584 | – | – | 0.0646 | 0.0553 | 0.0544 | 0.0513 | 0.0862 | – | – | 0.071 | 0.0617 | – | –
5 | S182Y | 0.0501 | – | 0.0628 | 0.0454 | 0.0571 | 0.0466 | 0.0379 | 0.0499 | – | – | 0.049 | – | 0.0637 | 0.066 | – | 0.0504 | 0.146 | 0.0564 | –
6 | S182P | 0.0637 | 0.0554 | 0.0621 | – | 0.0701 | 0.0906 | – | 0.0376 | – | 0.0728 | 0.0757 | 0.0728 | – | – | – | – | 0.0561 | 0.0974 | 0.0411
7 | S182I | 0.05 | – | 0.0613 | 0.0651 | 0.0522 | 0.054 | – | 0.073 | 0.0517 | – | 0.0469 | – | 0.0474 | 0.0669 | 0.0614 | 0.0753 | – | 0.0731 | –
8 | Q227C | 0.0649 | 0.0628 | 0.069 | – | 0.0578 | 0.0724 | – | 0.0619 | 0.0628 | – | 0.0616 | – | 0.0609 | – | 0.0819 | – | 0.09 | – | –
9 | Y179F | 0.0675 | 0.0584 | 0.0595 | 0.103 | 0.0698 | 0.0717 | – | 0.0499 | 0.0328 | – | 0.0725 | 0.0679 | – | – | – | 0.0715 | – | 0.0814 | –
10 | Y179C | 0.0768 | – | 0.0608 | 0.0578 | – | 0.0705 | – | – | 0.0873 | – | 0.0566 | 0.0562 | 0.0606 | – | 0.0538 | 0.0581 | 0.0806 | 0.0904 | –
11 | E189F | 0.062 | – | 0.0559 | – | 0.0668 | 0.073 | 0.0566 | – | 0.0752 | – | 0.0554 | 0.0545 | – | – | 0.0765 | – | 0.0682 | – | –
12 | M188A | 0.0751 | – | – | 0.105 | – | – | – | 0.0647 | 0.058 | 0.0509 | 0.0467 | 0.0662 | 0.0719 | – | 0.0673 | – | – | – | –
13 | G214R | 0.0604 | 0.0681 | 0.0583 | 0.0753 | 0.028 | – | 0.0397 | – | 0.0514 | 0.0613 | – | 0.0576 | 0.0586 | – | – | – | 0.0665 | – | 0.0741
14 | E223V | 0.0634 | – | 0.0487 | 0.0942 | 0.0582 | 0.0752 | – | – | – | 0.0578 | – | 0.0664 | – | – | 0.0868 | – | – | – | –
15 | E223W | 0.0702 | 0.0673 | 0.0581 | 0.0678 | – | 0.0776 | 0.082 | 0.0616 | 0.0508 | 0.0748 | – | 0.0827 | 0.0858 | – | 0.0905 | 0.0767 | – | 0.0743 | 0.0779
16 | V183Q | 0.0331 | 0.0535 | 0.0448 | 0.0508 | 0.047 | – | 0.0617 | 0.0488 | 0.0444 | 0.0477 | 0.0575 | 0.0606 | – | – | 0.0638 | – | 0.0651 | – | –
17 | E25F | – | 0.0716 | 0.0699 | 0.0867 | 0.0788 | 0.0785 | – | – | 0.0333 | – | 0.0703 | 0.0851 | 0.0567 | – | 0.0762 | – | 0.0781 | – | –
18 | E25M | – | 0.0788 | 0.0556 | 0.0873 | 0.0986 | 0.0802 | 0.0684 | 0.0607 | 0.0797 | – | 0.0749 | 0.0701 | 0.0614 | 0.0634 | 0.0616 | 0.122 | 0.0783 | 0.0807 | –
19 | E25H | – | 0.0739 | 0.0612 | 0.0736 | 0.0584 | 0.0766 | – | 0.0558 | 0.064 | 0.0747 | 0.0634 | 0.0603 | 0.065 | 0.0627 | – | – | 0.0631 | – | –
20 | A207W | 0.068 | 0.0633 | 0.0589 | 0.0679 | 0.067 | – | – | 0.0586 | 0.0409 | 0.059 | 0.0437 | – | 0.0471 | – | 0.064 | 0.0405 | 0.0722 | – | –
21 | A207G | 0.0807 | 0.0763 | 0.067 | 0.107 | 0.0659 | – | – | – | 0.0339 | 0.0762 | 0.0655 | 0.0558 | – | – | – | – | – | – | 0.0681
22 | R204S | 0.061 | – | 0.0642 | 0.0299 | 0.0745 | 0.0776 | – | 0.07 | 0.0586 | 0.107 | 0.0704 | 0.0476 | 0.0609 | – | – | 0.0867 | 0.0808 | – | 0.0163
23 | T30E | – | 0.0736 | – | 0.0849 | 0.0696 | 0.062 | 0.068 | 0.0703 | 0.0577 | 0.0752 | – | – | 0.0595 | – | 0.0649 | 0.0768 | – | 0.0623 | –
24 | T30I | – | 0.0607 | 0.0494 | 0.0847 | – | 0.0784 | – | 0.0627 | 0.0559 | 0.0677 | 0.0472 | 0.0626 | 0.0726 | 0.0726 | 0.0845 | 0.0712 | – | – | 0.0577
25 | W203M | 0.0546 | – | 0.0763 | 0.14 | – | 0.043 | 0.0612 | 0.0618 | 0.0672 | 0.0514 | 0.0524 | 0.0527 | – | 0.0549 | 0.0813 | – | 0.0531 | – | –
26 | F6G | – | 0.0646 | 0.059 | – | 0.0639 | 0.0786 | – | – | 0.0409 | – | – | 0.0533 | 0.0538 | – | – | – | 0.0653 | – | –
27 | S17I | – | 0.0664 | 0.0724 | 0.105 | 0.067 | 0.0753 | – | – | 0.0567 | – | 0.0547 | – | – | – | – | 0.0739 | – | – | –
28 | D27M | – | 0.0692 | 0.0552 | 0.0611 | 0.0599 | 0.0801 | – | 0.0572 | 0.0529 | 0.0646 | 0.0584 | 0.0655 | 0.0698 | 0.0574 | 0.0679 | – | 0.0737 | – | –
29 | K230Q | 0.039 | 0.0468 | 0.0527 | 0.081 | 0.0643 | 0.0664 | – | – | 0.0527 | – | 0.0715 | 0.0707 | 0.0603 | – | 0.0796 | 0.0869 | 0.079 | 0.133 | –
